PubChem BioAssay AID504332 (National Center for Advancing Translational Sciences (NCATS), 2011)
Screen size: about 350,000 compounds; about 31,000 (8.9%) were called active. Inconclusive means that the source gave no clear call. Such entries were picked first, then a sample of the others. Calls follow the shape of the dose curve; as a rule, active = well fitted inhibition curve with a large enough effect; inconclusive = small, poorly fitted or top-dose-only effect; inactive = no such curve, though single readings can be large or run the other way. Where the call is inconclusive, the potency comes from a doubtful curve fit. Where a structure was tested more than once in an assay, its records may differ in their call.

Each molecule was assayed against Histone-lysine N-methyltransferase EHMT2 (Homo sapiens) (UniProt Q96KQ7) (assay: qHTS Assay for Inhibitors of Histone Lysine Methyltransferase G9a). Conditions: G9a H3K9 monomethylation, AlphaScreen, 2 h; activity, negative = inhibition: at 59 µM (top of the series) unless noted.
Outline: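 Signal arises when biotinylated H3K9 peptide, once monomethylated, bridges streptavidin donor and antibody-captured acceptor beads. Enzyme at 20 nM was preincubated 15 min with test compounds; peptide 500 nM and SAM 20 uM then reacted for 2 h.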
% is scaled to controls: 0 for no effect and ±100 for the full control effect; potency is read from the fitted curve at half-maximal effect; tags tell the direction and shape of the fitted curve.
Also: nearly all actives have a fitted effect of over 75% in size.

Sequence of UniProt Q96KQ7 (Q96KQ7 whole entry, looked up): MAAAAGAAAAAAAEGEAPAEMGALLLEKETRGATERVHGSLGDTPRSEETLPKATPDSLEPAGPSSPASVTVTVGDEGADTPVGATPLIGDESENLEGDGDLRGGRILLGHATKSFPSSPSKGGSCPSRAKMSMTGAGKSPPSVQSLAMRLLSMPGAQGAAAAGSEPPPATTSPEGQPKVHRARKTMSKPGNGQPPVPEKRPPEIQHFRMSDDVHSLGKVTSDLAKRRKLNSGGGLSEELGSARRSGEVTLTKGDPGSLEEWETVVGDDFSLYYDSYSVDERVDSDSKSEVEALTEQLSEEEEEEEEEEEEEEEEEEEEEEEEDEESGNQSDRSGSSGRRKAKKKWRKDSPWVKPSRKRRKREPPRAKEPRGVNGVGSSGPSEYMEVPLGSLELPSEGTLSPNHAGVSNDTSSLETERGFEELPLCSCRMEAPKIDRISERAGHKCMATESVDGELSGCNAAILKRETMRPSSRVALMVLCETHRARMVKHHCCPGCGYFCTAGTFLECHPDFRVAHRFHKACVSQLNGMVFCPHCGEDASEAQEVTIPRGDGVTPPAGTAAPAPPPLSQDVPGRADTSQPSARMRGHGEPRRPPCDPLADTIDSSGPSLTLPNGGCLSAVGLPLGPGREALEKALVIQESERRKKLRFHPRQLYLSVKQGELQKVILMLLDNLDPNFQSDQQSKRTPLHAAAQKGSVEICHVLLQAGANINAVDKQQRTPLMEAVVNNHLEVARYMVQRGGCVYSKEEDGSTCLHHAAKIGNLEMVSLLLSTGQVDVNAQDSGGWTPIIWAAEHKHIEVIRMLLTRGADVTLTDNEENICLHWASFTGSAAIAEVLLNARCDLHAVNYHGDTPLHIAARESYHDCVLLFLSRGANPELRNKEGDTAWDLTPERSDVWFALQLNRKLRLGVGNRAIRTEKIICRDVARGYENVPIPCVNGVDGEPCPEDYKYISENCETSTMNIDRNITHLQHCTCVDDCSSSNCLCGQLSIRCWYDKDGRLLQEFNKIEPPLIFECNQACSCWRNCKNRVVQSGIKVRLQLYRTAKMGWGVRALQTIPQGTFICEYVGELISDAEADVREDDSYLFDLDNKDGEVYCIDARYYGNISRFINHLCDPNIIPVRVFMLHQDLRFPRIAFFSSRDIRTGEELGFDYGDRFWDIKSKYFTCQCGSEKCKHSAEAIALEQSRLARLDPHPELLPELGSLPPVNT

Structure (SMILES)	Potency	activity, negative = inhibition
O=[N+]([O-])c1ncn(Cc2c(Cl)cccc2Cl)n1	inconclusive: 10 µM [inhibitor, partial curve]	–
Cc1cc(Nc2ccccc2)n(-c2cccc(Cl)c2)n1	inconclusive: 35.5 µM [inhibitor, single point]	–
O=C(Nc1ccc(N2CCOCC2)cc1)c1cccc(-n2cnnc2)c1	active: 44.7 µM	–
O=C(Nc1cccc2ccccc12)C1CCN(C(=O)Cc2ccccc2)CC1	inconclusive: 35.5 µM [inhibitor, single point]	–
O=C(c1ccccc1)c1ccc(C(=O)N2CCN(c3ccccc3)CC2)cc1	inconclusive: 15.8 µM [inhibitor, partial curve, poor fit]	–
COc1cccc(OC)c1C(=O)Nc1nnc(C)s1	inconclusive: 39.8 µM [inhibitor, single point]	–
O=C(COC(=O)/C=C/c1ccco1)Nc1ccccc1	active: 56.2 µM	–
Cc1ccc(OCC(=O)N2CCN(C(=O)c3ccncc3)CC2)cc1	inconclusive: 89.1 µM [inhibitor, partial curve, poor fit]	–
Cc1ccc(OCC(=O)NNC(=O)CCC(=O)NCc2ccccc2)cc1	inconclusive: 56.2 µM [inhibitor, single point]	–
CC(=O)c1c(COC(=O)c2ccccc2)nc2ccccc2[n+]1[O-]	inconclusive: 89.1 µM [inhibitor, single point]	–
Cc1nc2ccc(NC(=O)c3ccc(S(=O)(=O)N4CCOCC4)cc3)cc2s1	inconclusive: 22.4 µM [inhibitor, partial curve, poor fit]	–
S=C(c1ccc(-c2ccccc2Cl)o1)N1CCCCC1	inconclusive: 28.2 µM [inhibitor, partial curve, poor fit]	–
Cc1cc(C(F)(F)F)nc(SCC(=O)NC2=NC(=O)C(C)S2)n1 (configuration not stated)	inconclusive: 8.91 µM [inhibitor, single point]	–
CCC(=O)N1CCc2cc(S(=O)(=O)CCC(=O)Nc3ccc(Cl)c(C(F)(F)F)c3)ccc21	inconclusive: 28.2 µM [inhibitor, partial curve, poor fit]	–
Cc1ccc(C)c(OCC(=O)NNC(=O)C2CC2)c1	inactive	–
CN(C)/C=C(/C(=O)c1ccccc1)S(=O)(=O)c1ccc(Cl)cc1	–	inconclusive: -62.5% [inhibitor]
CCN(N=Nc1cccc([N+](=O)[O-])c1)c1cccc([N+](=O)[O-])c1	inconclusive: 79.4 µM [inhibitor, partial curve, poor fit]	–
Oc1ccccc1-c1n[nH]c(=S)n1Cc1ccccc1	active: 2.82 µM	–
FC(F)(F)c1ccccc1N/N=C/c1cccnc1	inconclusive: 70.8 µM [inhibitor, single point]	–
COc1ccccc1N1CCN(C(=O)c2sc3nc4n(c(=O)c3c2C)CCC4)CC1	inconclusive: 25.1 µM [inhibitor, partial curve, poor fit]	–
COc1ccc(NC(=S)N(CCCN2CCOCC2)Cc2ccccn2)cc1	inconclusive: 7.94 µM [inhibitor, full curve, poor fit]	–
COC1CCN(C(=O)c2ccc(OC3CCN(Cc4ccccn4)CC3)cc2)CC1	inconclusive: 25.1 µM [inhibitor, single point]	–
O=C(CCCC(=O)N/N=C/c1ccccc1C(=O)O)N/N=C/c1ccccc1C(=O)O	inconclusive: 79.4 µM [inhibitor, partial curve, poor fit]	–

Structure (SMILES)	Potency	activity, negative = inhibition
CN(C)c1oc(-c2ccc(OCc3ccccc3)cc2)nc1C#N	active: 11.2 µM	–
Cc1cc(C)cc(NC(=O)COC(=O)[C@@H](NC(=O)c2ccco2)C(C)C)c1	inconclusive: 89.1 µM [inhibitor, partial curve, poor fit]	–
Nc1ccc(N2CCOCC2)c(Cl)c1	inconclusive: 28.2 µM [inhibitor, single point]	–
C/C=C/C=C\C(=O)Nc1cccc(C2=NOC3(C2)C[C@@H](C(N)=O)N(C(=O)c2cc([N+](=O)[O-])cc([N+](=O)[O-])c2)C3)c1 (some centres not stated)	inconclusive: 14.1 µM [inhibitor, single point]	–
O=[N+]([O-])c1ccc(Nc2nc(NC3CCCCC3)nc(N3CCCC3)n2)cc1	active: 11.2 µM	–
O=C1c2ccccc2C(=O)N1/N=C/c1ccc(Oc2ccc([N+](=O)[O-])cn2)cc1	inactive	–
COc1ccccc1CN1COc2ccc3c(C)cc(=O)oc3c2C1	inconclusive: 3.98 µM [inhibitor, partial curve, poor fit]	–
CCOC(=O)c1cc2c(=O)n3ccccc3nc2n(CCOC)c1=NC(=O)c1ccncc1	–	inactive: -4.12% [at 12.7 µM]
Cc1ccc(-c2cn3c(n2)CCCC3)cc1	inconclusive: 70.8 µM [inhibitor, single point]	–
S=c1[nH]nc(-c2ccncc2)n1/N=C/c1cn(-c2ccccc2)nc1-c1ccc(Cl)cc1	inactive	–
O=C(Oc1ccccc1)n1c(=S)oc2ccccc21	active: 3.55 µM	–
CCc1ccc2oc(=O)cc(CN3CCCCC3)c2c1	inactive	–
O=C(NNC(=O)C1CC1c1ccccc1)c1cccc([N+](=O)[O-])c1 (configuration not stated)	inconclusive: 89.1 µM [inhibitor, single point]	–
COc1ccc(N2C(=O)CC(Nc3ccc(F)cc3)C2=O)c([N+](=O)[O-])c1 (configuration not stated)	inconclusive: 50.1 µM [inhibitor, partial curve, poor fit]	–
CCCCN(C(=O)c1cccc(S(=O)(=O)N(C)c2ccc(C)cc2)c1)c1c(N)n(CCCC)c(=O)[nH]c1=O	inconclusive: 100 µM [inhibitor, single point]	–
O=C1c2cccc3c([N+](=O)[O-])ccc(c23)C(=O)N1CC1CCCO1 (configuration not stated)	inconclusive: 39.8 µM [inhibitor, single point]	–
Cc1c(C(=O)N2CCOCC2)c(S(=O)(=O)Nc2ccccc2F)c(C)n1C	inactive	–
CC(/C=N/NC(=S)Nc1cccc(S(=O)(=O)N(C)C)c1)c1ccccc1 (configuration not stated)	active: 8.91 µM	–
CC(=O)Nc1ccc(S(=O)(=O)Oc2ccc(Br)cc2C(=S)N2CCOCC2)cc1	inconclusive: 35.5 µM [inhibitor, partial curve, poor fit]	–
CCNc1nc(=S)nc(NC(C)C)[nH]1	inconclusive: 20 µM [inhibitor, single point]	–
CCOC(=O)c1[nH]c(C)c(/C(O)=C2\C(=O)C(=O)N(CCN(C)C)C2c2cccc(OC)c2OC)c1C (configuration not stated)	inconclusive: 31.6 µM [inhibitor, single point]	–
Cc1cccc(Cn2cc(C(=O)c3ccccc3)c(=O)c3cc4c(cc32)OCO4)c1	inactive	–
COc1ccc(C2=NN(C(=O)c3ccccc3)C(c3cccc([N+](=O)[O-])c3)C2)cc1 (configuration not stated)	inconclusive: 70.8 µM [inhibitor, partial curve, poor fit]	–

Structure (SMILES)	Potency	activity, negative = inhibition
CCOC(=O)C1=C(N)OC(CCl)=C(C#N)C1c1ccsc1 (configuration not stated)	inconclusive: 15.8 µM [inhibitor, partial curve]	–
Cc1ccc(Nc2sc(C(=O)c3ccccc3)c(N)c2C(=O)NC(C)C)cc1	inconclusive: 28.2 µM [inhibitor, single point]	–
Cc1nc2ccn(Cc3cccs3)c(=O)c2cc1C(=O)NCc1ccccc1	inactive	–
NC(=S)NNC(=O)Nc1cccc(Cl)c1	active: 8.91 µM	–
COc1ccc(NN=Nc2ccc([N+](=O)[O-])cc2)cc1	inconclusive: 31.6 µM [inhibitor, single point]	–
NC(=O)C(c1ccc(Cl)cc1)c1ccc(Sc2ccc(Cl)cc2)nn1 (configuration not stated)	active: 79.4 µM	–
O=C(NNC(=O)c1ccc(F)cc1)C(=O)N1CCCCC1	inconclusive: 39.8 µM [inhibitor, single point]	–
CN/C(=C\[N+](=O)[O-])NCCSCc1ccc(CN(C)C)o1	active: 11.2 µM	–
COc1ccc(NC(=O)CSc2oc(-c3cccs3)nc2S(=O)(=O)c2ccc(Br)cc2)c(OC)c1	inconclusive: 14.1 µM [inhibitor, partial curve, poor fit]	–
CCN(CC)S(=O)(=O)c1ccc2oc(C(=O)NC3CCCc4ccccc43)c(C)c2c1 (configuration not stated)	inconclusive: 1.78 µM [inhibitor, partial curve, poor fit]	–
Cc1ccc(NS(=O)(=O)c2ccc3c(c2)OCCCO3)cc1S(=O)(=O)N1CCOCC1	–	inactive: -22.1% [at 2.33 µM]
Cc1cc2c(cc1C)-n1c(-c3ccccc3)c3c(=O)n(C)c(=O)n(C)c3c1C(c1ccco1)N2 (configuration not stated)	inactive	–
CCN1CCN(CCCNC(=O)c2ccc3c(c2)N(Cc2ccc(C)cc2)CCS3)CC1	inconclusive: 63.1 µM [inhibitor, single point]	–
O=C(O)c1ccccc1SC1CC(=O)N(C2CCCCC2)C1=O (configuration not stated)	inconclusive: 0.501 µM [inhibitor, full curve, poor fit]	–
Cc1ccccc1OCc1nnc(SCC(=O)O)n1-c1cccc(Cl)c1	inactive	–
COc1ccc(C2CC(=O)c3cnc4c(-c5ccccc5)c(C)nn4c3C2)c(OC)c1 (configuration not stated)	inactive	–
COc1cccc(CN2CCN(C(=O)c3ccc(-c4ccccc4)cc3)CC2)c1	active: 12.6 µM	–
CCOC(=O)C1(Cc2cccc(OC)c2)CCCN(Cc2nccn2CC)C1 (configuration not stated)	inactive	–
Fc1ccc(-c2noc3ncnc(N4CCCCC4)c23)cc1	inactive	–
CCOC(=O)c1c(/N=C/c2ccc(C)cc2O)sc2c1CCN(C)C2	inconclusive: 70.8 µM [inhibitor, single point]	–
O=C(NC1CCCN(Cc2ccc(Cl)cc2)C1)c1ccnc(Cl)c1 (configuration not stated)	inconclusive: 89.1 µM [inhibitor, single point]	–
